According to patent US4652575A, “2-(ethylene-thio methyl furanyl)amino thiazole derivatives having acid secretion inhibiting activity” (Medosan Industrie Biochimiche Riunite S.p.A., priority 1984, dated 1987):
The name of at least one read-out is uncertain.

Test system: gastric secretion
Test: Activity on gastric secretion "in vivo" (volume and total acidity of gastric juice after pylorus tieing, Shay)
Set-up: species or system male Wistar rats
Experimental: The preparations were a solution of the substances in 2.5% citric acid for the "in vitro" test and 5% citric acid for the "in vivo" test respectively. Citric acid was diluted in normal physiologic saline at neutral pH.
The ability of the compounds according to the present invention to inhibit the gastric secretion was studied "in vivo" both by evaluating the volume reduction of gastric juice, and by measuring the total acidity of same after administration of the substances under test according to the Takeda method (see the aforementioned literature).
To this end, tests have been made on male Wistar rats of an average weight of 200 g. The animals, 10 for each substance, were placed into individual cages provided with ground grating in order to avoid coprophagy, without food but with free access to water for 24 hours before test. […] Four hours later the animals were sacrificed and the gastric juice was collected, of which the volume expressed in ml and the total acidity expressed in mEq was measured. The gastric juice ([…] ) was titrated with 0.1N NaOH to pH 7 to determine the acid concentration. The total acidity was then calculated as the product of the total volume of gastric juice by the acid concentration.

[1] = 0,1 mg/kg oral, 1 hour before pilorus tieing
[2] = 1,0 mg/kg oral, 1 hour before pilorus tieing
[3] = 5,0 mg/kg oral, 1 hour before pilorus tieing
[4] = 10,0 mg/kg oral, 1 hour before pilorus tieing
[5] = 20,0 mg/kg oral, 1 hour before pilorus tieing
[6] = dose 0,1 (head: ml/kg) oral, 3 hours before pilorus tieing
[7] = dose 1,0 (head: ml/kg) oral, 3 hours before pilorus tieing
[8] = dose 10,0 (head: ml/kg) oral, 3 hours before pilorus tieing
[9] = dose 20,0 (head: ml/kg) oral, 3 hours before pilorus tieing

## CN(C)Cc1ccc(CSCCNC(=S)NC(=O)c2ccccc2)o1 [Example No. 1, N-benzoyl-N'-(2-(((5-(dimethylamino)methyl-2-furanyl)methyl)-thio)ethyl)-thiourea]
[1]
  Total acidity gastric juice secretion: 0,16 mEq/4 hours
  Total acidity gastric juice secretion, Variation %: -11%
  Volume gastric juice secretion: 5,0 ml/4 hours
  Volume gastric juice secretion, Variation %: -9%
[2]
  Total acidity gastric juice secretion: 0,11 mEq/4 hours
  Total acidity gastric juice secretion, Variation %: -39%
  Volume gastric juice secretion: 3,8 ml/4 hours
  Volume gastric juice secretion, Variation %: -31%
[3]
  Total acidity gastric juice secretion: 0,09 mEq/4 hours
  Total acidity gastric juice secretion, Variation %: -50%
  Volume gastric juice secretion: 3,6 ml/4 hours
  Volume gastric juice secretion, Variation %: -35%
[4]
  Total acidity gastric juice secretion: 0,07 mEq/4 hours
  Total acidity gastric juice secretion, Variation %: -61%
  Volume gastric juice secretion: 3,5 ml/4 hours
  Volume gastric juice secretion, Variation %: -36%
[5]
  Total acidity gastric juice secretion: 0,06 mEq/4 hours
  Total acidity gastric juice secretion, Variation %: -72%
  Volume gastric juice secretion: 3,2 ml/4 hours
  Volume gastric juice secretion, Variation %: -42%
[6]
  Total acidity gastric juice secretion: 0,16 mEq/4 hours
  Total acidity gastric juice secretion, Variation %: -11%
  Volume gastric juice secretion: 5,1 ml/4 hours
  Volume gastric juice secretion, Variation %: -6%
[7]
  Total acidity gastric juice secretion: 0,13 mEq/4 hours
  Total acidity gastric juice secretion, Variation %: -18%
  Volume gastric juice secretion: 4,7 ml/4 hours
  Volume gastric juice secretion, Variation %: -13%
[8]
  Total acidity gastric juice secretion: 0,09 mEq/4 hours
  Total acidity gastric juice secretion, Variation %: -50%
  Volume gastric juice secretion: 3,9 ml/4 hours
  Volume gastric juice secretion, Variation %: -28%
[9]
  Total acidity gastric juice secretion: 0,08 mEq/4 hours
  Total acidity gastric juice secretion, Variation %: -55%
  Volume gastric juice secretion: 3,7 ml/4 hours
  Volume gastric juice secretion, Variation %: -31%

## CN(C)Cc1ccc(CSCCNc2nc(-c3ccccc3)cs2)o1 [Example No. 3, 2-(2-(((5-(dimethylamino)methyl-2-furanyl)methyl)thio)ethyl)-amino-4-phenylthiazole]
[1]
  Total acidity gastric juice secretion: 0,15 mEq/4 hours
  Total acidity gastric juice secretion, Variation %: -17%
  Volume gastric juice secretion: 5,2 ml/4 hours
  Volume gastric juice secretion, Variation %: -5%
[2]
  Total acidity gastric juice secretion: 0,10 mEq/4 hours
  Total acidity gastric juice secretion, Variation %: -44%
  Volume gastric juice secretion: 4,1 ml/4 hours
  Volume gastric juice secretion, Variation %: -25%
[3]
  Total acidity gastric juice secretion: 0,08 mEq/4 hours
  Total acidity gastric juice secretion, Variation %: -55%
  Volume gastric juice secretion: 3,5 ml/4 hours
  Volume gastric juice secretion, Variation %: -36%
[4]
  Total acidity gastric juice secretion: 0,06 mEq/4 hours
  Total acidity gastric juice secretion, Variation %: -67%
  Volume gastric juice secretion: 3,2 ml/4 hours
  Volume gastric juice secretion, Variation %: -42%
[5]
  Total acidity gastric juice secretion: 0,04 mEq/4 hours
  Total acidity gastric juice secretion, Variation %: -78%
  Volume gastric juice secretion: 3,0 ml/4 hours
  Volume gastric juice secretion, Variation %: -45%
[6]
  Total acidity gastric juice secretion: 0,17 mEq/4 hours
  Total acidity gastric juice secretion, Variation %: -6%
  Volume gastric juice secretion: 5,2 ml/4 hours
  Volume gastric juice secretion, Variation %: -4%
[7]
  Total acidity gastric juice secretion: 0,14 mEq/4 hours
  Total acidity gastric juice secretion, Variation %: -22%
  Volume gastric juice secretion: 4,5 ml/4 hours
  Volume gastric juice secretion, Variation %: -17%
[8]
  Total acidity gastric juice secretion: 0,10 mEq/4 hours
  Total acidity gastric juice secretion, Variation %: -44%
  Volume gastric juice secretion: 3,8 ml/4 hours
  Volume gastric juice secretion, Variation %: -30%
[9]
  Total acidity gastric juice secretion: 0,07 mEq/4 hours
  Total acidity gastric juice secretion, Variation %: -61%
  Volume gastric juice secretion: 3,4 ml/4 hours
  Volume gastric juice secretion, Variation %: -37%
